# Measured values as given in the supplement of paper PMC12340641.
# Whole data set: some 1,000 compounds, median “relative growth recovery (pomalidomide 10 uM = 100%, DMSO = 0%)” near -1.6, cut for the highest 2% near 21. The list shows a part of the results.
# Test system: HEK293FT dCK*-IKZF1
# Assay: relative growth recovery (pomalidomide 10 uM = 100%, DMSO = 0%); higher = more growth rescue (IKZF1 fusion degradation)
# Conditions: compound concentration: 5 uM; AraC concentration: 0.3 uM; overnight pretreatment + 4 days AraC
# Protocol: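 Growth recovery screen of the molecular-glue-like (Specs) library. HEK293FT cells expressing a dCK*-IKZF1 fusion (primary) or dCK* alone (counter) were pretreated overnight with compound at 5 uM, then given 0.3 uM AraC for 4 days. Hoechst nuclei were counted by imaging. Primary: normalised to pomalidomide (100%) and DMSO (0%), mean of 2 replicates. Counter: normalised to no-AraC (100%) and AraC+DMSO (0%), single replicate.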
row,Structure (SMILES),relative growth recovery [%]
1,Cc1cnc(Nc2cccc(C3CN(C(=O)c4c(C(C)C)noc4C)CCO3)n2)s1 (stereo unspecified),-3.31
2,Cc1nc(Nc2cccc(C3CCN(CC(=O)N4CCC(C)CC4)CC3)n2)sc1C,14.2
3,CCOCC(=O)Nc1ccc(S(=O)(=O)Nc2ncccn2)cc1,1.86
4,Cc1cnc(Nc2cccc(C3CN(C(=O)c4ccccc4)CCO3)n2)s1 (stereo unspecified),-9.61
5,CCCOc1ccc(/C=C/C(=O)Nc2ccc(S(=O)(=O)Nc3cc(C)nc(C)n3)cc2)cc1OC,-3.6
6,CC(=O)Nc1ccc(-c2csc(Nc3ccc(Cl)cn3)n2)cc1,-2.84
7,O=C(C1CCCCC1)N1CCOC(c2cccc(Nc3ncc(Cc4ccccc4F)s3)n2)C1 (stereo unspecified),2.42
8,O=C(/C=C/c1cccnc1)N1CCC(c2cc3ccccc3c(Nc3nccs3)n2)CC1,-18.4
9,CC(=O)Nc1cccc(-c2csc(Nc3cccc(C)n3)n2)c1,5.18
10,COc1cccc(OC)c1C(=O)N1CCOC(c2cccc(Nc3nc(C)cs3)n2)C1 (stereo unspecified),7.41
11,Nc1cccc(Oc2ccc3c(c2)C(=O)N(c2cccc4ccccc24)C3=O)c1,-9.89
12,CCOCc1ccc(C(=O)N2CCCC2c2cccc(Nc3nc(C)c(C)s3)n2)cc1 (stereo unspecified),6.63
13,Cc1cnc(Nc2cccc(C3CCN(C(=O)C4CCCCC4)CC3)n2)s1,-12.5
14,CCOc1ccc(C(=O)Nc2ccc(S(=O)(=O)Nc3nc(C)cc(C)n3)cc2)cc1,0.305
15,O=C(O)COCCOCCNc1cc2c(cc1F)C(=O)N(C1CCC(=O)NC1=O)C2=O (stereo unspecified),-7.7
16,Cc1cnc(Nc2cc(C3CCN(C(=O)C4CCCCN4C(=O)OC(C)(C)C)CC3)ccn2)s1 (stereo unspecified),0.335
17,CC(=O)Nc1ccc(S(=O)(=O)Nc2ncccn2)cc1,-3.27
18,Cc1ccnc(NS(=O)(=O)c2ccc(NC(=O)c3ccc(C)c(C)c3)cc2)n1,1.75
19,COc1ccc(Cl)cc1NC(=O)CSc1nnc2c(n1)[nH]c1ccc(C)cc12,-3.02
20,Cc1nc(C)c(C(=O)N2CCC(c3cccc(Nc4ncc(C)s4)n3)CC2)o1,-15.8
21,Cc1cnc(Nc2cccc(C3CN(C(=O)CCc4cccc(Cl)c4)CCO3)n2)s1 (stereo unspecified),-10.3
22,O=C(CC(c1ccccc1)c1ccccc1)Nc1ccc(S(=O)(=O)Nc2ncccn2)cc1,-1.98
23,O=C(COc1ccccc1Cl)Nc1ccc(S(=O)(=O)Nc2ccccn2)cc1,2.83
24,CN(C)CC(=O)N1CCC(c2cccc(Nc3ncc(-c4ccccc4)s3)n2)CC1,-2.54

row,Structure (SMILES),relative growth recovery [%]
1,Cc1ccccc1N1C(=O)c2ccc(Oc3ccc(N)cc3)cc2C1=O,0.58
2,Cc1cc(C)c(OCC(=O)Nc2ccc(S(=O)(=O)Nc3cc(C)nc(C)n3)cc2)c(C)c1,-3.12
3,COc1nccnc1NS(=O)(=O)c1ccc(NC(=S)NC(=O)/C=C/c2ccccc2)cc1,-17.9
4,CCCCc1cnc(Nc2cccc(C3CCN(C(=O)[C@@H]4CCCCN4)CC3)n2)s1,-11.4
5,CN1CCN(CC(=O)N2CCC(c3cccc(Nc4ncc(-c5ccccc5)s4)n3)CC2)CC1,-17.9
6,Cc1nc(Nc2cccc(C3CCCN3C(=O)c3ccc(=O)n(C)n3)n2)sc1C (stereo unspecified),5.83
7,O=C(CC1C=CCC1)N1CCC(c2cccc(Nc3nccs3)n2)CC1 (stereo unspecified),-6.62
8,Cc1cc(NS(=O)(=O)c2ccc(NC(=O)c3cccnc3)cc2)nc(C)n1,1.28
9,Cc1ccnc(NS(=O)(=O)c2ccc(N3C(=O)C4CC=CCC4C3=O)cc2)n1 (stereo unspecified),3.23
10,Cc1cnc(Nc2cccc(C3CN(C(=O)C4CCCO4)CCO3)n2)s1 (stereo unspecified),-8.88
11,O=C(Nc1ccc(S(=O)(=O)Nc2ccccn2)cc1)c1cc2ccccc2o1,1.15
12,Cc1cc(C)c2[nH]c3nc(SCC(=O)Nc4cccc(Cl)c4C)nnc3c2c1,-14.9
13,COc1ccc(C(=O)Nc2ccc(S(=O)(=O)Nc3ccccn3)cc2)cc1,-5.12
14,Cc1cc(C)nc(NS(=O)(=O)c2ccc(NC(=O)c3ccc(S(=O)(=O)N(C)C)cc3)cc2)n1,-5.78
15,O=C1CCCC/C1=C/Nc1ccc(S(=O)(=O)Nc2cnc3ccccc3n2)cc1,-2.63
16,Cc1cnc(Nc2cccc(C3CN(C(=O)Cn4c(C(F)(F)F)nc5ccccc54)CCO3)n2)s1 (stereo unspecified),0.825
17,Cc1cc(C)n(CC(=O)N2CCOC(c3cccc(Nc4ncc(C)s4)n3)C2)c(=O)n1 (stereo unspecified),2.22
18,COCC(=O)N[C@H]1CCC[C@H]1C(=O)N1CCOC(c2cccc(Nc3ncc(C)s3)n2)C1 (stereo partly specified),0.57
19,CC(=O)Nc1ccc(S(=O)(=O)Nc2nc(C)cc(C)n2)cc1,1.11
20,Cc1cnc(Nc2cccc(C3CCN(C(=O)C4(NC(=O)C(C)(C)C)CCCCC4)CC3)n2)s1,-12.6
21,O=C(COc1cccc(Cl)c1)Nc1ccc(S(=O)(=O)Nc2ncccn2)cc1,-2.65
22,CC(C)Nc1nc(NC(C)C)nc(NS(=O)(=O)c2ccc(N)cc2)n1,-1.87
23,CC(C)C(=O)Nc1ccc(S(=O)(=O)Nc2ncccn2)cc1,-3.75
24,Cc1ccc2[nH]nc(C(=O)N3CCOC(c4cccc(Nc5ncc(Cc6ccccc6)s5)n4)C3)c2c1 (stereo unspecified),-18.5

row,Structure (SMILES),relative growth recovery [%]
1,O=C1CCC(N2C(=O)c3ccc(N4CCN(C5CCC(C(=O)O)CC5)CC4)cc3C2=O)C(=O)N1 (stereo unspecified),2.25
2,Cc1c(Cl)cccc1NC(=O)CSc1nnc2c(n1)[nH]c1ccc(F)cc12,1.04
3,COc1ccc(/C=C/C(=O)NC(=S)Nc2ccc(S(=O)(=O)Nc3nc(C)cc(C)n3)cc2)cc1OC,-4.8
4,Cc1cnc(Nc2cccc(C3CN(C(=O)C4CCCC4)CCO3)n2)s1 (stereo unspecified),-12.3
5,Cc1cnc(Nc2cccc(C3CN(C(=O)C45CC6CC(CC(C6)C4)C5)CCO3)n2)s1 (stereo unspecified),-2.75
6,COc1cc(NS(=O)(=O)c2ccc(NC(C)=O)cc2)nc(OC)n1,-0.035
7,CN(CCCN1CCNCC1)c1cccc2c1C(=O)N(C1CCC(=O)NC1=O)C2=O (stereo unspecified),1.56
8,CCc1ccccc1OCC(=O)Nc1ccc(S(=O)(=O)Nc2ncccn2)cc1,-3.74
9,Cc1cc(Cl)ccc1OC(C)C(=O)Nc1ccc(S(=O)(=O)Nc2ccccn2)cc1 (stereo unspecified),0.47
10,CCCOc1ccc(C(=O)Nc2ccc(S(=O)(=O)Nc3ncccn3)cc2)cc1,-3.33
11,Cc1nc(Nc2cccc(C3CCN(C(=O)Cc4ccc(F)cc4)CC3)n2)sc1C,-4.92
12,CCCc1cnc(Nc2cccc(C3CCN(C(=O)c4n[nH]c5ccc(C)cc45)CC3)n2)s1,-3.85
13,Cc1cnc(C(=O)N2CCCC2c2cccc(Nc3nc(C)c(C)s3)n2)cn1 (stereo unspecified),4.79
14,NC(=O)CN1CCCC1c1cccc(Nc2nccs2)n1 (stereo unspecified),-20.3
15,Cc1ccc(OCC(=O)Nc2ccc(S(=O)(=O)Nc3ncccn3)cc2)c(C)c1,-0.14
16,CCCc1cnc(Nc2cccc(C3CCN(C(=O)[C@H]4CCCC[C@H]4C(N)=O)CC3)n2)s1,-18.1
17,CCC(C)C(=O)Nc1ccc(S(=O)(=O)Nc2nccc(C)n2)cc1 (stereo unspecified),0.82
18,Cc1ccnc(NS(=O)(=O)c2ccc(NC(=O)CCc3ccccc3)cc2)n1,-1.39
19,CC(=O)N1CCC(c2cccc(Nc3nc(C)c(C)s3)n2)CC1,-9.57
20,Cc1ccc(C)c(OCC(=O)Nc2ccc(S(=O)(=O)Nc3nc(C)cc(C)n3)cc2)c1,-2.19
21,Cc1cccc(C(=O)Nc2ccc(S(=O)(=O)Nc3ncccn3)cc2)c1,-1.64
22,COc1ccc(NC(=O)CN2CCC(c3cccc(Nc4ncc(C)s4)n3)CC2)cc1,-11
23,Cc1cc(NS(=O)(=O)c2ccc(NC(=O)c3ccccc3)cc2)nc(C)n1,-5.71
24,O=C(COc1ccc(F)cc1)N1CCCC1c1cccc(Nc2nccs2)n1 (stereo unspecified),15.1

row,Structure (SMILES),relative growth recovery [%]
1,COc1ccc(CCC(=O)N2CCOC(c3cccc(Nc4ncc(C)s4)n3)C2)cc1 (stereo unspecified),15.7
2,Cc1cnc(Nc2cc(C3CCN(C(=O)C4CCCCC4)CC3)ccn2)s1,-0.875
3,Cc1cc(C)nc(NS(=O)(=O)c2ccc(NC(=O)CCl)cc2)n1,3.25
4,Cc1cnc(Nc2cccc(C(C(=O)N(C)C)C3CCN(C(=O)[C@H](CC(C)C)NC(=O)OC(C)(C)C)CC3)n2)s1 (stereo partly specified),3.71
5,CC(C)(C)C(=O)N1CCC(Cc2ccc(Nc3ncc(-c4ccc(F)cc4)s3)nc2)C1 (stereo unspecified),1.68
6,COc1ccc(Cl)c2c1[nH]c1nc(SCC(=O)Nc3ccc(Cl)cc3)nnc12,2.88
7,O=C1CCC(N2C(=O)c3cc(F)c(N4CCN(CCC5CCNCC5)CC4)cc3C2=O)C(=O)N1 (stereo unspecified),-5.21
8,Cc1csc(Nc2cccc(C3CCN(C(=O)CCn4ncc5ccccc54)CC3)n2)n1,6.91
9,CCC(=O)Nc1cccc(C(=O)Nc2ccc(S(=O)(=O)Nc3ncccn3)cc2)c1,-1.9
10,CCN1C(=O)c2cccc3c(S(=O)(=O)Nc4ccccn4)ccc1c23,-3.48
11,CC(C)(C)c1ccccc1OCC(=O)Nc1ccc(S(=O)(=O)Nc2ncccn2)cc1,1.46
12,CCCc1cnc(Nc2cccc(C3CCN(C(=O)C4CCCCC4)CC3)n2)s1,-15.7
13,CC(C)C(=O)Nc1cccc(C(=O)Nc2ccc(S(=O)(=O)Nc3ncccn3)cc2)c1,6.37
14,CCOC(=O)CCC(=O)Nc1ccc(S(=O)(=O)Nc2cc(OC)nc(OC)n2)cc1,0.685
15,CC(=O)N1CCC(Cc2cccc(Nc3ncc(C)s3)n2)CC1,-11.3
16,Cc1cc(OCC(=O)N2CCCC2c2cccc(Nc3nccs3)n2)c2ccccc2n1 (stereo unspecified),0.24
17,O=C(Nc1ccc(S(=O)(=O)Nc2ccccn2)cc1)c1cccc(Cl)c1,-1.96
18,Cc1cccc(NS(=O)(=O)c2ccc([N+](=O)[O-])cc2)n1,0.58
19,Cc1cnc(Nc2cccc(C3CN(C(=O)c4nccn4C)CCO3)n2)s1 (stereo unspecified),-1.17
20,Cc1cnc(Nc2cccc(C3CCCN3C(=O)c3ccccc3)n2)s1 (stereo unspecified),-2.77
21,Cc1cnc(Nc2cccc(C3CCN(C(=O)C4C5C=CC(C5)C4C(=O)NCCO)CC3)n2)s1 (stereo unspecified),-18.2
22,Cc1cc(C)nc(NS(=O)(=O)c2ccc(NC(=O)COc3ccc(Cl)cc3)cc2)n1,3.77
23,CN1C(=O)c2cccc3c(S(=O)(=O)Nc4ccccn4)ccc1c23,-7.02
24,Cn1nccc1/C=C/C(=O)N1CCCC(c2cc3ccccc3c(Nc3nccs3)n2)C1 (stereo unspecified),-10.2
